From paper PMC9911399, “Two distinct binding modes provide the RNA-binding protein RbFox with extraordinary sequence specificity”
Where a chain is given by its changes, count along the chain named. The list shows a part of the results.

T1: RBFOX1 RRM (Homo sapiens, UniProt Q9NWB1 109-208)
T1 sequence: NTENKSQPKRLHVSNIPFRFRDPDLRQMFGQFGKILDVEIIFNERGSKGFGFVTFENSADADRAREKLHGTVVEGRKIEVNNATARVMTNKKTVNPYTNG

B1: GUUGGUA (DNA:RNA)
RNA: GGGAGACCGGAAUUCAGAUUGUCCGUUGGUAUUAAAUCCCGUCGUAGCCACCA
DNA 1: CAATCTGAATTCCGGTCTCCC
DNA 2: TGGTGGCTACGACGGGATT
B2: CCAUACA (DNA:RNA)
RNA: B1 RNA with G25C, U26C, U27A, G28U, G29A, U30C
DNA 1: CAATCTGAATTCCGGTCTCCC
DNA 2: TGGTGGCTACGACGGGATT
B3: GGAAUGA (DNA:RNA)
RNA: B1 RNA with U26G, U27A, G28A, G29U, U30G
DNA 1: CAATCTGAATTCCGGTCTCCC
DNA 2: TGGTGGCTACGACGGGATT
B4: UAGGUCC (DNA:RNA)
RNA: B1 RNA with G25U, U26A, U27G, G29U, U30C, A31C
DNA 1: CAATCTGAATTCCGGTCTCCC
DNA 2: TGGTGGCTACGACGGGATT
B5: AAACCAC (DNA:RNA)
RNA: GGGAGACCGGAAUUCAGAUUGUCCAAACCACUUAAAUCCCGUCGUAGCCACCA
DNA 1: CAATCTGAATTCCGGTCTCCC
DNA 2: TGGTGGCTACGACGGGATT
B6: CCAAAAU (DNA:RNA)
RNA: B5 RNA with A25C, A26C, C28A, C29A, C31U
DNA 1: CAATCTGAATTCCGGTCTCCC
DNA 2: TGGTGGCTACGACGGGATT
B7: GCUCGGU (DNA:RNA)
RNA: B1 RNA with U26C, G28C, U30G, A31U
DNA 1: CAATCTGAATTCCGGTCTCCC
DNA 2: TGGTGGCTACGACGGGATT
B8: UCAUCGC (DNA:RNA)
RNA: B5 RNA with A25U, A26C, C28U, A30G
DNA 1: CAATCTGAATTCCGGTCTCCC
DNA 2: TGGTGGCTACGACGGGATT
B9: GUCUAGC (DNA:RNA)
RNA: B1 RNA with U27C, G28U, G29A, U30G, A31C
DNA 1: CAATCTGAATTCCGGTCTCCC
DNA 2: TGGTGGCTACGACGGGATT
B10: CCAUAGC (DNA:RNA)
RNA: B5 RNA with A25C, A26C, C28U, C29A, A30G
DNA 1: CAATCTGAATTCCGGTCTCCC
DNA 2: TGGTGGCTACGACGGGATT
B11: UCGGUGC (DNA:RNA)
RNA: B5 RNA with A25U, A26C, A27G, C28G, C29U, A30G
DNA 1: CAATCTGAATTCCGGTCTCCC
DNA 2: TGGTGGCTACGACGGGATT
B12: CUAUGGG (DNA:RNA)
RNA: B1 RNA with G25C, U27A, G28U, U30G, A31G
DNA 1: CAATCTGAATTCCGGTCTCCC
DNA 2: TGGTGGCTACGACGGGATT
B13: UACCUGG (DNA:RNA)
RNA: B5 RNA with A25U, A27C, C29U, A30G, C31G
DNA 1: CAATCTGAATTCCGGTCTCCC
DNA 2: TGGTGGCTACGACGGGATT
B14: UUGCAGA (DNA:RNA)
RNA: B1 RNA with G25U, U27G, G28C, G29A, U30G
DNA 1: CAATCTGAATTCCGGTCTCCC
DNA 2: TGGTGGCTACGACGGGATT
B15: GAGGCCA (DNA:RNA)
RNA: B1 RNA with U26A, U27G, G29C, U30C
DNA 1: CAATCTGAATTCCGGTCTCCC
DNA 2: TGGTGGCTACGACGGGATT
B16: UCACAGA (DNA:RNA)
RNA: B5 RNA with A25U, A26C, C29A, A30G, C31A
DNA 1: CAATCTGAATTCCGGTCTCCC
DNA 2: TGGTGGCTACGACGGGATT
B17: CUAGCAA (DNA:RNA)
RNA: B5 RNA with A25C, A26U, C28G, C31A
DNA 1: CAATCTGAATTCCGGTCTCCC
DNA 2: TGGTGGCTACGACGGGATT
B18: AUAGCGC (DNA:RNA)
RNA: B5 RNA with A26U, C28G, A30G
DNA 1: CAATCTGAATTCCGGTCTCCC
DNA 2: TGGTGGCTACGACGGGATT
B19: UAGAAGC (DNA:RNA)
RNA: B5 RNA with A25U, A27G, C28A, C29A, A30G
DNA 1: CAATCTGAATTCCGGTCTCCC
DNA 2: TGGTGGCTACGACGGGATT
B20: AACGUUA (DNA:RNA)
RNA: B1 RNA with G25A, U26A, U27C, G29U
DNA 1: CAATCTGAATTCCGGTCTCCC
DNA 2: TGGTGGCTACGACGGGATT
B21: GUAACAC (DNA:RNA)
RNA: B5 RNA with A25G, A26U, C28A
DNA 1: CAATCTGAATTCCGGTCTCCC
DNA 2: TGGTGGCTACGACGGGATT
B22: CGUAUCG (DNA:RNA)
RNA: B1 RNA with G25C, U26G, G28A, G29U, U30C, A31G
DNA 1: CAATCTGAATTCCGGTCTCCC
DNA 2: TGGTGGCTACGACGGGATT
B23: UGUAUAA (DNA:RNA)
RNA: B1 RNA with G25U, U26G, G28A, G29U, U30A
DNA 1: CAATCTGAATTCCGGTCTCCC
DNA 2: TGGTGGCTACGACGGGATT
B24: CUGCACC (DNA:RNA)
RNA: B5 RNA with A25C, A26U, A27G, C29A, A30C
DNA 1: CAATCTGAATTCCGGTCTCCC
DNA 2: TGGTGGCTACGACGGGATT
B25: AGCUAAC (DNA:RNA)
RNA: B5 RNA with A26G, A27C, C28U, C29A
DNA 1: CAATCTGAATTCCGGTCTCCC
DNA 2: TGGTGGCTACGACGGGATT
B26: UGCUUAU (DNA:RNA)
RNA: B5 RNA with A25U, A26G, A27C, C28U, C29U, C31U
DNA 1: CAATCTGAATTCCGGTCTCCC
DNA 2: TGGTGGCTACGACGGGATT
B27: UAAUGUG (DNA:RNA)
RNA: B5 RNA with A25U, C28U, C29G, A30U, C31G
DNA 1: CAATCTGAATTCCGGTCTCCC
DNA 2: TGGTGGCTACGACGGGATT
B28: ACACGCA (DNA:RNA)
RNA: B5 RNA with A26C, C29G, A30C, C31A
DNA 1: CAATCTGAATTCCGGTCTCCC
DNA 2: TGGTGGCTACGACGGGATT
B29: AUGGGAA (DNA:RNA)
RNA: B1 RNA with G25A, U27G, U30A
DNA 1: CAATCTGAATTCCGGTCTCCC
DNA 2: TGGTGGCTACGACGGGATT
B30: GUUAAUU (DNA:RNA)
RNA: B1 RNA with G28A, G29A, A31U
DNA 1: CAATCTGAATTCCGGTCTCCC
DNA 2: TGGTGGCTACGACGGGATT
B31: CGGUGGC (DNA:RNA)
RNA: B5 RNA with A25C, A26G, A27G, C28U, C29G, A30G
DNA 1: CAATCTGAATTCCGGTCTCCC
DNA 2: TGGTGGCTACGACGGGATT

Molecular target: T1, RBFOX1 RRM
Experiment: EMSA; HiTS-Eq, 1 nM pool, 10 min; buffer printed only for the single-RNA assays: 10 mM Tris pH 7.5, 150 mM NaCl, 3.4 mM EDTA, 0.001% NP-40, 30 C
Conditions: tags: His6 N-terminal (pET28a); label: 5' 32P
In short: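 These values rest on relative association constants, computed from read-count changes of each RNA species versus the control reaction and normalised to the cognate motif. Reads came from free RNA recovered by 8% native PAGE after purified RbFox RRM (wild type or mutant) at increasing concentrations was equilibrated for 10 min in 50 µL with 1 nM of a 5′-radiolabelled pool with 7 randomized nucleotides and DNA-annealed flanks.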

Row | Binder | binding signal
1 | B1 | 0.0216 KA relative to UGCAUGU
2 | B2 | 0.00184 KA relative to UGCAUGU
3 | B3 | 0.0487 KA relative to UGCAUGU
4 | B4 | 0.0159 KA relative to UGCAUGU
5 | B5 | 0.00213 KA relative to UGCAUGU
6 | B6 | 0.00117 KA relative to UGCAUGU
7 | B7 | 0.0213 KA relative to UGCAUGU
8 | B8 | 0.00956 KA relative to UGCAUGU
9 | B9 | 0.0126 KA relative to UGCAUGU
10 | B10 | 0.0011 KA relative to UGCAUGU
11 | B11 | 0.0236 KA relative to UGCAUGU
12 | B12 | 0.00291 KA relative to UGCAUGU
13 | B13 | 0.011 KA relative to UGCAUGU
14 | B14 | 0.018 KA relative to UGCAUGU
15 | B15 | 0.0131 KA relative to UGCAUGU
16 | B16 | 0.00686 KA relative to UGCAUGU

Row | Binder | binding signal
17 | B17 | 0.00778 KA relative to UGCAUGU
18 | B18 | 0.00901 KA relative to UGCAUGU
19 | B19 | 0.0129 KA relative to UGCAUGU
20 | B20 | 0.00187 KA relative to UGCAUGU
21 | B21 | 0.00539 KA relative to UGCAUGU
22 | B22 | 0.0121 KA relative to UGCAUGU
23 | B23 | 0.0154 KA relative to UGCAUGU
24 | B24 | 0.0128 KA relative to UGCAUGU
25 | B25 | 0.00665 KA relative to UGCAUGU
26 | B26 | 0.0138 KA relative to UGCAUGU
27 | B27 | 0.0261 KA relative to UGCAUGU
28 | B28 | 0.00371 KA relative to UGCAUGU
29 | B29 | 0.00671 KA relative to UGCAUGU
30 | B30 | 0.00741 KA relative to UGCAUGU
31 | B31 | 0.0225 KA relative to UGCAUGU
